The chains are these.
B1: LINE1-mini (parent)
chain: GGCAGAGCUCAACACAGCGUGGCAAAGUGGCUGUGGCUAGACUGCC

Read counts are not given, so values of variants with three or more changes are uncertain.

The data set covers variants of B1. Put plainly: self-cleavage, relative activity (ratio to wild type); higher = more cleavage; in vitro, sequencing; the parent is a self-cleaving ribozyme.
In the case of C10G G21U G35U G40A, the self-cleavage is 0.01. Then C10G A11U C15U, with 0; and C10G A14G U34G, with 0.15. Then C10A G17U G35U G44C, with 0.01; and C10A C15A G30C, with 0. With C10G A11G A16C C18G C23U A24G U38A the figure was 0. In the case of C10A G29A C45U, the self-cleavage was determined as 0.05. With C10U A11C G40U the figure was 0.04. Then C10G G21U U43A, with 0; and C10U A14C G22U G33U C42A, with 0.01; and C10G A25U G30C U43A, with 0.

Consider C10A G36A C42A, for which the self-cleavage was found to be 0. Then C10A C15G C18G G21A C31A, with 0.01; and C10A U20A G22U C23A G36U, with 0.01; and C10U A24C G33U, with 0.02.

Take C10A G30U U38C U43G: the self-cleavage came out at 0.

Turning to C10A G19A C23U A24C, the self-cleavage was found to be 0.01. C10G A24G G27C: the self-cleavage came to 0.29. With C10G U32C C37A the figure was 0.02. Then C10A G40C C42U, with 0.01; and C10G A11U C23A A25C C45G, with 0.01.

Consider C10G C31U G36A U43C, for which the self-cleavage turned out to be 0. With C10A G21U G36A the figure was 0; with C10A G21U G27A U34A G36C, 0.01; with C10G G27C A41U, 0.02. Then C10A C13U G27C U28C, with 0.04; and C10A C18G A24U C31U, with 0.03. Then C10G C18U G22U U38A, with 0.08; and C10A C13U G17U G27C A39G G40U, with 0.04. For C10A C15U A25U, the self-cleavage was determined as 0.02.

C10G C13U U20A: the self-cleavage was found to be 0. Then C10G C37G A41C C42U, with 0. Take C10A G17C A24U: the self-cleavage worked out at 0.03. For the variant C10A G17U G33U, the self-cleavage was determined as 0.01. With C10A G22A G36U the figure was 0.02; with C10G G17A U20C G22U, 0.54; with C10A C13U A16G C46A, 0. Then C10A U34A G35A, with 0.06; and C10G A25U U32G G36C C37U, with 0.02; and C10G A14C G29U C37U A39U, with 0.01. With C10G C18A A24C U28G C37A the figure was 0.01; with C10G A11C C45G C46G, 0; with C10G G21C U34G, 0.07. As to C10G A25G C42U, the self-cleavage came out at 0.01. Then C10U A11G C13U G27A, with 0.03.

Consider C10G C15G C31A G36C, for which the self-cleavage turned out to be 0.03. With C10A G35A C46U the figure was 0.01; with C10U A11G A12G G21U G30C C42A, 0. Then C10A G21U G29U, with 0.02; and C10U A12U G22C, with 0.08. With C10A G21U A26C C37U the figure was 0.01; with C10A C15A G17A G22U U32C U43G, 0.02. Take C10A C13A U34A C37A: the self-cleavage is 0.01.

Regarding C10A G33U C45G, the self-cleavage came out at 0.01. With C10U A14U G36A the figure was 0.04; with C10G G30U C37A C46A, 0.01. In the case of C10A C31A G35A C42G G44C, the self-cleavage was 0.02. Then C10A C23U A24U A25C, with 0; and C10G A14C C15A U28G U32G C46G, with 0.02; and C10U A16G U28G C31A G36A C37U, with 0.01. Then C10A G19C G30U, with 0.08; and C10A C13G G27U C31A, with 0.03; and C10G G19C A39U C42G, with 0.02. With C10G G19U U20A C42G the figure was 0; with C10U A11C G21A A41G C42A, 0.02.

As for C10A G19A G22U A26C A41C C45A, the self-cleavage is 0.02. Then C10G C13A A26G C46U, with 0.02.

C10A U20G G22A: the self-cleavage worked out at 0.04. Then C10U A16C C23G, with 0.02; and C10G A16U G35A, with 0.01. Then C10A G30U G40C, with 0.02; and C10U A12C A24C, with 0.01. C10G C13A G19A U28A U32C C45U: the self-cleavage amounted to 0.02. Regarding C10U A11U G17C G19C G30A, the self-cleavage was 0.04. As for C10A G22U C31U, the self-cleavage was 0.02.

Regarding C10A C15G G36U A41G, the self-cleavage was determined as 0.02. With C10A C23A U34G U38G the figure was 0.04; with C10A C18A A24G G33A C37A, 0.01; with C10A C31A C37A, 0.05. Regarding C10G C23U C45G, the self-cleavage came to 0.01. With C10U A14U C18A G22U A24C G30A G44A the figure was 0.03. C10G G22U C31G: the self-cleavage stood at 0.01. Then C10A G22A C37U C45U, with 0; and C10G C15G G27C U32A, with 0.02. Then C10G G27A U38A, with 0.01; and C10U A12U C13G G21C, with 0.06.

For the variant C10A G33U U38G G44U C45A, the self-cleavage stood at 0.03. With C10G C18A U34A the figure was 0.01. With C10G A11G C45A the figure was 0; with C10A U28A G35C, 0.01; with C10G C15U G33A C45G, 0.02. Then C10U A16G G33U C45U, with 0.15; and C10G G19U C37U C46U, with 0.01; and C10U A16G C18U, with 0.09. Take C10G C15A G30C: the self-cleavage came to 0.03. With C10A G21U A41C the figure was 0.01; with C10A C13G C15U C46A, 0.01; with C10G A14C C18G G22A G27C G29A, 0. C10A U32C U43G: the self-cleavage came to 0.05. Then C10G C13U A14U G27U G30C, with 0.02; and C10A G21C U32G U34C, with 0.01. For the variant C10A C15G G40A C42G, the self-cleavage worked out at 0.03.

With C10A C15A A16U, the self-cleavage is 0.04.

In the case of C10U A12C A25G G30A, the self-cleavage turned out to be 0.01.

Turning to C10A G17A G36U, the self-cleavage was found to be 0. As for C10A C15A C18G G22U, the self-cleavage was 0.06. With C10G G19A C23A C37U A39C the figure was 0. With C10G G17A G30A U38A G44C the figure was 0.02; with C10A C37U G44C C46G, 0.

Turning to C10A C15A U20A G36U, the self-cleavage was determined as 0.02. With C10G U20A G22A G35A C37U the figure was 0.01. Then C10G G17U C23U, with 0.05. Then C10G C18U G44C, with 0.11; and C10G A11C C13U C31U U32C G36U C42G, with 0.01. With C10G U20G A39G G40U, the self-cleavage came to 0.01. As for C10G A11G G22C C46A, the self-cleavage came to 0.01. With C10G G19U G33U G35A C46A the figure was 0.01; with C10A G33A U34G A41G C42G, 0; with C10U A14G G30A C46U, 0.11. For the variant C10A G27A G33C, the self-cleavage was 0.03.

For C10A G27A G33A, the self-cleavage came out at 0.03. Then C10A U28A G44U, with 0.

On to C10A G29C U32G, for which the self-cleavage was 0. For the variant C10A C23U C31U U43A, the self-cleavage stood at 0.01.

As to C10A G22U A24C, the self-cleavage turned out to be 0.04. With C10U A12G G27U U34C the figure was 0.02; with C10A U34A G36A C42A U43A G44U, 0.05. With C10U A24C G40U the figure was 0.02; with C10A G19C G30C C42A, 0.01; with C10A G36U A39C, 0.01. As for C10A C23G G35C U43A, the self-cleavage is 0. Then C10A C31G G33U, with 0.01; and C10A G19C A26G, with 0.01; and C10A G19C G27C C31U, with 0.03. Then C10A G21A U38A C46A, with 0.13; and C10A C15A G21C A41C, with 0.01; and C10A C37A C45G, with 0.01. In the case of C10A G21U G22C C46U, the self-cleavage is 0.07. With C10A C13A G36A the figure was 0.05; with C10A G17A G30A, 0.04.

With C10G G22U U28C, the self-cleavage came to 0.07.

For C10G G40C C42U, the self-cleavage stood at 0. On to C10A G27A U28A C31U, for which the self-cleavage was 0. With C10G A14C G22C A41G the figure was 0; with C10G A25G G27U, 0.01; with C10G U28A G30A G36C, 0.04. For the variant C10A C18G G22C G44U C46A, the self-cleavage was found to be 0.06.

For C10G G21A C23A A26C G27A U32A U34A G40A C45A, the self-cleavage is 0.01. As for C10A C15A A25C, the self-cleavage is 0.02.

On to C10G A11C G19U C23U G29C U34G, for which the self-cleavage amounted to 0.01. Then C10A G22C G29A A39G, with 0.01; and C10A C18G U32A, with 0.03; and C10G G17A C18A U32C, with 0.06.

Consider C10A G27U G29A C37A G40A, for which the self-cleavage amounted to 0. With C10A G22U G40U the figure was 0.02; with C10U A14C C18A G27U, 0.04. Consider C10G C13A C15G C42U, for which the self-cleavage was found to be 0.01. With C10G C23A G44A the figure was 0.06. In the case of C10A U20A G33A, the self-cleavage is 0.05. In the case of C10G G19C U43C, the self-cleavage worked out at 0.02. Then C10A C13U A26G G33U U38G, with 0.01; and C10G C18A A26U G27U G29A, with 0.02; and C10G A11U G22U C23A U28C, with 0.02.

Take C10A G22C C45U: the self-cleavage amounted to 0.04.

With C10G G35U C37A, the self-cleavage came to 0.03. Regarding C10G A11G C23G U43A, the self-cleavage was found to be 0. With C10A G17A G33U the figure was 0.01.

(Values after the RNAGym collection of RNA variant scans (doi:10.7554/elife.90254).)
